In all, about 310,000 compounds went through this assay and about 14,000 (4.5%) showed an effect of 50% or more. Effects have a minus sign here. Some of the results follow.
Molecular target: human ether-à-go-go-related gene (hERG) potassium channel (human, UniProt Q12809)
Assay: primary screen, population patch clamp on CHO cells stably expressing hERG
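Further: peak tail current of the secondary pulse compared with the same well before compound.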

Chain of human ether-à-go-go-related gene (hERG) potassium channel (Q12809 whole entry, looked up): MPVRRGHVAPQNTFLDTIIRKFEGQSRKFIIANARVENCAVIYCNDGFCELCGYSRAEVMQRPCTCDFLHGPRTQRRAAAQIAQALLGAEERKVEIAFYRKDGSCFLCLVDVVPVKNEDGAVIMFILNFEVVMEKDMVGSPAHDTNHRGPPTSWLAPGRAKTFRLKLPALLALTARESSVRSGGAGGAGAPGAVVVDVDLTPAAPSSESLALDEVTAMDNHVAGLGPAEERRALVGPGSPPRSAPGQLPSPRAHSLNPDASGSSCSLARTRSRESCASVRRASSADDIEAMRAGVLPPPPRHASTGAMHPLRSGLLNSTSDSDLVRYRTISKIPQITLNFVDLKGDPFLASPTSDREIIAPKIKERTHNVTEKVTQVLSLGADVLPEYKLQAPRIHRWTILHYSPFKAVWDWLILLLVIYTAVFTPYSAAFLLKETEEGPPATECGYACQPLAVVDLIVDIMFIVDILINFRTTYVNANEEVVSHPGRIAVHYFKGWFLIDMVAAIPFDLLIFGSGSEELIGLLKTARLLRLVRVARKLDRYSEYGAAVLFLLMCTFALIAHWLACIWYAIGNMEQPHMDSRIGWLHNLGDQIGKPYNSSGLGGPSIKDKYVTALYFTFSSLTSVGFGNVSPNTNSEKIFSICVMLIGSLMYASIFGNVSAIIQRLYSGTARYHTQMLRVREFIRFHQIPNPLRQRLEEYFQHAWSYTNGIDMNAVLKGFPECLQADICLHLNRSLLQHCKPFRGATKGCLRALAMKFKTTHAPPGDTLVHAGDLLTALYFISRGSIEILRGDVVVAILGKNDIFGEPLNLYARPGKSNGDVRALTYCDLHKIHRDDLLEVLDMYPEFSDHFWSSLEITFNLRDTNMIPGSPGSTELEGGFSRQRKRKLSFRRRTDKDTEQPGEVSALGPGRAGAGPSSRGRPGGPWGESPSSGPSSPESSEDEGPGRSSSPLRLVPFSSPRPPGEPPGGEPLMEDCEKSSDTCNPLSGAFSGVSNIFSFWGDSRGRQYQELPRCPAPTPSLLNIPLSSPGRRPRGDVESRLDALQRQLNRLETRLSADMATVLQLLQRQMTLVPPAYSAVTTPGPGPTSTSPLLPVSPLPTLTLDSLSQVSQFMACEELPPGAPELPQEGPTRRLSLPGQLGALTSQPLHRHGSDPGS

Row | SMILES | hERG current change (%, negative = inhibition) at 10uM [%]
1 | COc1ccc2c(c1)C(c1cccs1)=NNC(c1cccnc1)=N2 | 10.4
2 | Cc1ccc2c(c1)cc1c(=O)n(CC(=O)NCCCc3ccccc3)nc(C)n12 | 18.2
3 | N#Cc1cc2c(=O)n3ccccc3nc2n(Cc2cccnc2)c1=O | -21
4 | CN(C(=O)CSc1nc2ccccc2s1)c1c(N)n(Cc2ccccc2)c(=O)[nH]c1=O | -5.47
5 | COc1n[nH]c(C(=O)Nc2nc3ccccc3s2)c1[N+](=O)[O-] | 16
6 | Cc1ccc(S(=O)(=O)NCCN2CCNC2=O)cc1 | 3.9
7 | CNC(=O)c1ccccc1Sc1ccccc1C#N | 19.1
8 | O=C(O)c1ccccc1C(=O)NCCc1ccc(Cl)cc1 | 19.9
9 | CCOc1ccccc1CNC(=O)CCc1cn(C)c2ccccc12 | 14.5
10 | CCc1nn2cc(-c3ccccc3)nc2s1 | 6.77
11 | COc1cccc(-n2nnc3c(=O)n(CC(=O)N4CCCCC4)cnc32)c1 | -9.71
12 | CCn1c(SCC(=O)Nc2ccc3c(c2)OCCO3)nnc1-c1cccs1 | -44.9
13 | O=C(O)c1ccc(N=NN2CCOCC2)cc1 | 1.57
14 | COc1cc([N+](=O)[O-])ccc1NC(=O)CSc1ccccn1 | 8.33
15 | OCCN(CC#CCC(O)(c1ccccc1)C1CCCC1)CCO (centres unmarked) | 7.63
16 | CCOC(=O)c1cc2sccc2n1CC(=O)N1CCCC1 | -8.74
17 | COc1cccc(-c2nc(CSCC(=O)N3CCc4ccccc43)c(C)o2)c1 | 5.03
18 | CCCCCCCOc1ccc(-c2ccc(C#N)cn2)cc1 | -11.2
19 | CC1CCC2(CC1)C(Nc1cccc(Cl)c1)=NC(=S)N2CC#N (centres unmarked) | -1.43
20 | O=C(NCc1ccc2c(c1)OCO2)c1cc(=O)[nH]c2ccccc12 | 7.04

Row | SMILES | hERG current change (%, negative = inhibition) at 10uM [%]
21 | CCOC(=O)N1CCC(NC(=O)c2cc(COc3c(C)cccc3C)on2)CC1 | -38.3
22 | COc1ccccc1CNC(=O)Cn1cccc1C(=O)c1ccccc1 | 8.74
23 | O=C(c1cc2c(s1)-c1ccccc1OC2)N1CCN(c2ccccn2)CC1 | -3.38
24 | CCC(=O)c1ccc(N2CCN(C(=O)COc3ccccc3F)CC2)c(F)c1 | -50.9
25 | CN(C)CC1CCCCC1C1(O)c2ccccc2CSc2sccc21 (centres unmarked) | -31.3
26 | Cc1cccc(OCCCCCn2ccnc2)c1C | -13.7
27 | N#Cc1ccc(OCc2nnc(-c3ccc([N+](=O)[O-])cc3)o2)cc1 | -41.7
28 | Cc1nc2ccc(S(=O)(=O)NC(C(=O)NCc3ccc4c(c3)OCO4)C(C)C)cc2s1 (centres unmarked) | -5.4
29 | O=C(NCc1cccc(Br)c1)c1cc(-c2ccccc2)nn1CC1CC(c2cccc([N+](=O)[O-])c2)=NO1 (centres unmarked) | -0.929
30 | Cc1ccc2c(c1)c1ncn(Cc3ccc(F)cc3)c(=O)c1n2C | -6.32
31 | O=C(/C=N/O)NCCCn1ccnc1 | 3.97
32 | CCOC(=O)c1c(-c2ccc(OC)cc2)nc2nonc2c1N | -19.8
33 | Cn1c(CNC(=O)CCNC(=O)c2ccccc2)cc(=O)n(C)c1=O | 15.9
34 | CC(C)N1CCN(Cc2cccc3c2OCO3)CC1CCO (centres unmarked) | -0.928
35 | Clc1ccc(NC2=NCCC2)cc1Cl | -5.94
36 | CCCc1[nH]nc2c1C(c1cccc(OC)c1)C(C#N)=C(N)O2 (centres unmarked) | -36.5
37 | CC(C)Cn1c(N)c(C(=O)COC(=O)CCNS(=O)(=O)c2ccccc2)c(=O)n(C)c1=O | -48.4
38 | CCn1c(CSc2nc3ccccc3n2C)nc2ccccc21 | -28.9
39 | CCOc1ccc(C(=O)CCC(=O)N(CC)CC(=O)Nc2c(F)cccc2F)cc1 | -25.6
40 | O=C(Nc1ccccc1)c1cccc(N2CCCC2=O)c1 | 7.13

Row | SMILES | hERG current change (%, negative = inhibition) at 10uM [%]
41 | O=C(Nc1ccccc1)NC(Cc1ccc(O)cc1)C(=O)O (centres unmarked) | 17.4
42 | Cc1ccc(C)c(NC(=O)NNS(=O)(=O)c2ccc(C)c(C)c2)c1 | 5.67
43 | COc1cc(C(=O)Cc2nc3ccccc3n2C)cc(OC)c1OC | 13.8
44 | O=C(O)CC(NC(=O)C12CC3CC(CC(C3)C1)C2)c1ccc(Cl)cc1 (centres unmarked) | 3.8
45 | CN(C)S(=O)(=O)Oc1ccc(C(=O)Nc2cccc(C(F)(F)F)c2)cc1 | 15.6
46 | COc1ccc(NC(=O)C2C3C=CC(C3)C2C(=O)NCc2ccccn2)c(OC)c1 (centres unmarked) | 30
47 | COC(=O)c1ccc(C(=O)OC)c(NC(=O)COC(=O)c2ccc(OC)c(OC)c2OC)c1 | 18.7
48 | CCOC(=O)C1CCCN(C2CC(=O)N(c3cccc(C(F)(F)F)c3)C2=O)C1.Cl (centres unmarked) | -12.4
49 | COC(=O)CSc1nc2c(c(-c3ccco3)c1C#N)CCCC2 | -1.09
50 | CCC(COC)NCc1cn(-c2ccc(OC)cc2)nc1-c1cccc(F)c1 (centres unmarked) | -70.3
51 | CN=C(Nc1cccc(Cl)c1)SC1CC(=O)N(c2ccc(OC)cc2)C1=O (centres unmarked) | 11
52 | Cc1ccc(C2=NN(C(=O)CN3CCN(C4CCS(=O)(=O)C4)CC3)C(c3ccco3)C2)cc1 (centres unmarked) | -3.72
53 | CCOc1ccc(NC(=O)CSc2nnc(C3CC3)n2C2CC2)cc1 | -15.7
54 | Cc1ccc(NC(=O)Nc2ccccc2)nc1 | 15.4
55 | Cn1c(-c2ccc(F)cc2)cnc1NCc1ccccc1 | -46.7
56 | CC(C)(C)c1ccc(C(=O)NCc2ccccc2)cc1 | 39
57 | O=C(CCNc1n[nH]c(=O)[nH]c1=O)N1CCOCC1 | -9.49
58 | COc1ccc(-c2nc(-c3ccc(Br)o3)no2)cc1OC | 3.55
59 | O=c1[nH]nc(SCc2ccccc2)n1C1CC2C=CC1C2 (centres unmarked) | 7.61
